# Measured values: the supplement of paper PMC9334596
# Values joined by “and” are separate entries in the source; they are usually repeats but may differ in a detail not shown here. Identical values can stand only once. In all, about 5,300 compounds were measured (“PER2::LUC luminescence relative to vehicle control”: median about 0.96, highest 2% from about 1.3 on). This is one part of the list.
# System: mPer2Luc MEF
# Assay: PER2::LUC luminescence relative to vehicle control (fold of vehicle); higher = higher PER2::LUC reporter signal
# Conditions: 10 µM
# In short: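 Mouse embryonic fibroblasts carrying the mPer2Luc reporter were seeded at ~3000 cells per well in 384-well plates, 48 h before compounds from commercial libraries were added at 10 μM. Cells were grown in DMEM with 10% FBS at 37 °C and 5% CO2. Luminescence was read with the ONE-Glo luciferase assay system 24 h and 30 h after treatment, followed by an alamarBlue viability assay. The value is PER2::LUC luminescence as fold of vehicle control.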
Compound,PER2::LUC luminescence (time after treatment 24 h),PER2::LUC luminescence (time after treatment 30 h)
O=C(O)c1ccc(S(=O)(=O)N(Cl)Cl)cc1,0.921,1.67
O=C(Oc1ccccc1C(=O)O)c1ccccc1O,1.15 and 0.613,1.16 and 0.995
COc1c(C)c2c(c(O)c1C/C=C(\C)CCC(=O)O)C(=O)OC2,0.802,0.675
CC(C)c1ccc2c(c1)CC[C@H]1[C@](C)(CN)CCC[C@]21C,0.712,0.857
Nc1ccc(C(=O)O)cc1,0.924 and 0.9,0.926 and 0.943
CCN1CCCC(OC(=O)C(c2ccccc2)c2ccccc2)C1 (configuration not stated),0.94,0.928
C[C@H](Cc1cc2c(c(C(N)=O)c1)N(CCCO)CC2)NCCOc1ccccc1OCC(F)(F)F,0.884,0.606
CN(C)CCOc1ccc(-c2nc(-c3ccncc3)c(-c3ccc4c(c3)CC/C4=N\O)[nH]2)cc1,0.851,1.13
NCCNCCNCCN,1.02,0.896
CN(C)CCCSC(=N)N,0.801,0.768
CNC(=O)Nc1ccc(OC)c(NC(=O)NC(=O)c2cc(F)c(F)cc2Cl)c1,1.15,1.04
NS(=O)(=O)OC[C@@H]1C[C@@H](n2ccc3c(N[C@H]4CCc5ccccc54)ncnc32)C[C@@H]1O,0.538,0.688
Cc1ccc(-n2sc(=O)n(Cc3ccc(F)cc3)c2=O)cc1,1.13,1.33
O=C(NCCN1CCOCC1)c1ccc(Cl)cc1,1.09 and 1.08,0.965 and 1.2
O=C(c1ccc(CN2CCOCC2)cc1)N1CCN(C2CC2)CC1,1.07,0.963
O=C(CCc1ccc(O)cc1)c1c(O)cc(O)cc1O[C@@H]1OC(CO)[C@@H](O)[C@@H](O)C1O (some centres not stated),0.993,0.943
C/C(=C\C(=O)Nc1ccccc1C(=O)O)c1ccc2ccccc2c1,1.53,1.46
O=C(c1ccc(/C=C/c2n[nH]c3ccccc23)cc1)N1CCNCC1,0.405,0.358
CC12CCc3occc3C1CCC13CC(=O)C(CCC12)C3 (configuration not stated),0.996,0.94
COCc1nc2c([nH]1)c(=O)n(C)c(=O)n2CC(C)C,1.09,0.792
COc1ccc(C[C@H](N)C(=O)N[C@H]2[C@@H](O)[C@H](n3cnc4c(N(C)C)ncnc43)O[C@@H]2CO)cc1,0.186,0.173
[O-][n+]1cccc(CO)c1,0.924,0.894
CCCCS(=N)(=O)CCC(N)C(=O)O (racemic),1.01,0.875

Compound,PER2::LUC luminescence (time after treatment 24 h),PER2::LUC luminescence (time after treatment 30 h)
NC(=O)OCC(COC(N)=O)c1ccccc1,1.09,0.997
Cc1ccnc(NS(=O)(=O)c2ccc(N)cc2)n1,0.797,0.97
N.N.O=C([O-])C[O-].[Pt+2],1.05,1.04
COC(=O)N[C@H](C(=O)N[C@@H](Cc1ccccc1)[C@@H](O)CN(Cc1ccc(-c2ccccn2)cc1)NC(=O)[C@@H](NC(=O)OC)C(C)(C)C)C(C)(C)C,0.876,0.954
Nc1ccc(S(=O)(=O)Nc2cnc3ccccc3n2)cc1,1.02 and 0.897,0.884 and 0.829
CNC[C@H](O)[C@@H](O)[C@H](O)[C@H](O)CO,0.928,1.05
NCCCC(O)(P(=O)(O)O)P(=O)(O)O,0.666,0.999
Cc1c2c(c(O)c3c(O)cccc13)C(=O)O[C@@H]2[C@@H]1[C@H](O)C(=O)C(C(N)=O)=C(O)[C@H]1N(C)C [Alpha-APO-OXYTETRACYCLINE],0.979,0.958
CC1=C([C@@H]2C=C3[C@@H](CC[C@]4(C)[C@@H]([C@H](C)CCCC(C)C)CC[C@@H]34)n3c(=O)n(-c4ccccc4)c(=O)n32)C[C@@H](O)C[C@@H]1O,0.94,0.899
COC(=O)Nc1ccc(-c2nc(N3CCOCC3)c3cnn(C4CCN(C(=O)OC)CC4)c3n2)cc1,0.44,0.732
CCCCCCCCCC[Si](C)(C)CCC(=O)NC(Cc1ccc(C)cc1)c1ccccc1 (configuration not stated),1.11,1.16
OC(CCN1CCCCC1)(c1ccccc1)C1CCCCC1 (racemic),0.755,0.805
CCCCNc1cc(C(=O)O)cc(S(N)(=O)=O)c1Oc1ccccc1,1.21,1.86
C[C@H](Cn1cnc2c(N)ncnc21)OCP(=O)(O)O,1.03,1.25
CCOC(=O)[C@H](C)C[C@@H](Cc1ccc(-c2ccccc2)cc1)NC(=O)CCC(=O)O,1.09,0.971
N#CC(c1ccnc(OCc2ccc(CN3CCOCC3)cc2)n1)c1nc2ccccc2s1 (configuration not stated),0.531,0.65
O=c1c(O[C@@H]2O[C@H](CO)[C@@H](O)[C@H](O)[C@H]2O)c(-c2ccc(O)c(O)c2)oc2cc(O)cc(O)c12,0.974,0.999
O=c1ncc(F)c[nH]1,0.979,0.911
N[C@H](C(=O)O)[C@@H]1CC(Cl)=NO1,0.429,0.458
CC(=O)Oc1ccccc1C(=O)Oc1ccccc1C(=O)O,0.951,0.934
CC(C)n1c(/C=C/C(O)CC(O)CC(=O)O)c(-c2ccc(F)cc2)c2ccccc21 (configuration not stated),0.544 and 0.472,0.46 and 0.331
O=C(NCCCN1CCCCCC1)C(c1ccccc1)C1CCCCC1 (configuration not stated),0.809,0.898
O=C(O)c1ccncc1,0.962,0.954

Compound,PER2::LUC luminescence (time after treatment 24 h),PER2::LUC luminescence (time after treatment 30 h)
CC[C@H](NC(=O)c1c(O)c(-c2ccccc2)nc2ccccc12)c1ccccc1,1.04,0.983
CCCCCC(O)c1cccc(OCc2ccc3ccccc3n2)c1 (configuration not stated),1.04,1.22
COc1ccc2[nH]c(-c3ccccc3)c(CCNC(C)=O)c2c1,0.762,0.89
CC(C)(C)c1ccc(C(=O)CCCN2CCC(OC(c3ccccc3)c3ccccc3)CC2)cc1,1.01,1.03
O=c1ccn([C@@H]2O[C@H](CO)[C@@H](O)[C@H]2O)c(=O)[nH]1,0.979,1.03
COc1cccc2cc(-c3nc([C@H]4CC[C@H](C(=O)O)CC4)n4ncnc(N)c34)[nH]c12,0.517,0.54
Oc1cccc2[nH]ccc12,0.989,1
CC(C)C[C@H](N)C(=O)N[C@@H](C)C(=O)O,1.01,0.99
C[C@@H](c1nc(-c2ccc(C#N)cc2)cs1)[C@](O)(Cn1cncn1)c1cc(F)ccc1F,0.999,0.999
CC(=O)CCCCn1cnc2c1c(=O)n(C)c(=O)n2C,0.931,0.944
Cn1ccnc1,1.06,1.02
CCN(CC)CCOC(=O)c1ccc(N)cc1,1.07 and 0.897,1.58 and 0.928
CCOC(=O)c1c(C)cc(O)c(C=O)c1O,0.921,0.928
COc1ccc(-c2coc3c4c(c(CC=C(C)C)c(O)c3c2=O)OC(C)(C)C=C4)cc1,0.893,0.894
Cc1c(C)c2c(c(C)c1O)CCC(C)(C(=O)O)O2 (configuration not stated),1.08,1.22
Clc1ccc(C(Cn2ccnc2)OCc2ccc(Sc3ccccc3)cc2)c(Cl)c1 (configuration not stated),0.905,1.06
CC[C@H](C)C(=O)O[C@H]1C[C@@H](C)C=C2C=C[C@H](C)[C@H](CC[C@@H]3C[C@@H](O)CC(=O)O3)[C@H]21,0.614,0.507
NC1CCN(O)C1=O (racemic),1.06,0.968
COc1cccc(-c2cc(=O)c3cc(OC)ccc3o2)c1,1.22,1.49
CCN(CC)C(=O)C(c1ccccc1)N1CCN(c2ccc(NC(=O)c3ccccc3-c3cccnc3)cc2F)CC1 (configuration not stated),0.968,1.09
CN(C)CCn1nnnc1SCC1=C(C(=O)O)N2C(=O)[C@@H](NC(=O)Cc3csc(N)n3)[C@H]2SC1,0.665,0.948
N[C@@H](CCCC(=O)O)C(=O)O,1.1,0.958
O=c1cc(-c2ccccc2)oc2cc(O)c(O)c(O)c12,1.13,1.1

Compound,PER2::LUC luminescence (time after treatment 24 h),PER2::LUC luminescence (time after treatment 30 h)
CC(C)CCCC(C)N (configuration not stated),0.899,0.987
COc1cc(C2Oc3cc([C@H]4Oc5cc(O)cc(O)c5C(=O)[C@@H]4O)ccc3OC2CO)ccc1O (some centres not stated),1.05 and 1.02 and 0.819,0.985 and 0.972 and 1.15
O=c1[nH]c2cc(C(F)(F)F)ccc2n1-c1cc(C(F)(F)F)ccc1O,1.02,1.22
CC(=O)N[C@@H](CS)C(=O)O,1.04 and 0.979,0.991 and 1.2
N[C@@H](Cc1cc(I)c(Oc2ccc(O)cc2)c(I)c1)C(=O)O,0.918,1.04
C[C@]1(c2nc3c(C(N)=O)cccc3[nH]2)CCCN1,1.08 and 0.967 and 1.16,1.01 and 0.999 and 1.18
N#C/C(=C\c1ccc(O)c(O)c1)C(=O)NCCc1ccccc1,0.619,1.06
O=c1cc(-c2ccccc2)[nH]c2nc(Cl)ccc12,0.918,0.918
O=C(O)Cc1cccc(OCCCN(Cc2cccc(C(F)(F)F)c2Cl)CC(c2ccccc2)c2ccccc2)c1,1.4,1.47
O=c1[nH]c(=O)c2nc3ccccc3nc2[nH]1,1.1,0.912
O=C1C(CC[S+]([O-])c2ccccc2)C(=O)N(c2ccccc2)N1c1ccccc1 (configuration not stated),1,1.08
CCn1c(=O)c(-c2ccc(-c3cncs3)cc2Cl)cc2cnc(Nc3ccc(N4CCN(C)CC4)cc3)nc21,1.11,1.29
Clc1ccc2c(c1)N=C(N1CCNCC1)c1ccccc1N2,0.496,0.526
CC(=O)OC/C=C(C)/C=C/C=C(C)/C=C/C1=C(C)CCCC1(C)C,0.964,0.832
CCCCC(=O)OCC(=O)[C@]1(O)Cc2c(O)c3c(c(O)c2[C@@H](O[C@H]2C[C@H](NC(=O)C(F)(F)F)[C@H](O)[C@H](C)O2)C1)C(=O)c1c(OC)cccc1C3=O,0.904,0.561
NS(=O)(=O)c1cc2c(cc1Cl)N=C(CSCc1ccccc1)NS2(=O)=O,1.05,1.03
OC[C@@H](O)[C@@H](O)CO,1.01,0.956
CCC[C@H](N[C@@H](C)C(=O)N1[C@H](C(=O)O)C[C@@H]2CCCC[C@@H]21)C(=O)O,0.996,0.98
CCCn1c(=O)c2[nH]c(-c3ccccc3)nc2n(CCC)c1=O,0.925,0.976
O=C1NC(=O)/C(=C/c2ccc(-c3ccc(F)cc3O)o2)S1,0.691,1.18
NC1(c2ccc(-c3nc4ccn5c(=O)[nH]nc5c4cc3-c3ccccc3)cc2)CCC1,0.223,0.276
Cc1ccccc1/C=C/C1=NCCN1,0.856,0.889
